Source: publication PMC4336329 (PLoS ONE, 2015)
Among all 310,000 compounds or so, about 14,000 (4.5%) showed an effect of 50% or more. Effects have a minus sign here. The list shows a part of the results.
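Note: peak tail current of the secondary pulse compared with the same well before compound.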

What follows are compounds tested against human ether-à-go-go-related gene (hERG) potassium channel (human, UniProt Q12809) (assay: primary screen, population patch clamp on CHO cells stably expressing hERG).
human ether-à-go-go-related gene (hERG) potassium channel, sequence (Q12809 whole entry, looked up): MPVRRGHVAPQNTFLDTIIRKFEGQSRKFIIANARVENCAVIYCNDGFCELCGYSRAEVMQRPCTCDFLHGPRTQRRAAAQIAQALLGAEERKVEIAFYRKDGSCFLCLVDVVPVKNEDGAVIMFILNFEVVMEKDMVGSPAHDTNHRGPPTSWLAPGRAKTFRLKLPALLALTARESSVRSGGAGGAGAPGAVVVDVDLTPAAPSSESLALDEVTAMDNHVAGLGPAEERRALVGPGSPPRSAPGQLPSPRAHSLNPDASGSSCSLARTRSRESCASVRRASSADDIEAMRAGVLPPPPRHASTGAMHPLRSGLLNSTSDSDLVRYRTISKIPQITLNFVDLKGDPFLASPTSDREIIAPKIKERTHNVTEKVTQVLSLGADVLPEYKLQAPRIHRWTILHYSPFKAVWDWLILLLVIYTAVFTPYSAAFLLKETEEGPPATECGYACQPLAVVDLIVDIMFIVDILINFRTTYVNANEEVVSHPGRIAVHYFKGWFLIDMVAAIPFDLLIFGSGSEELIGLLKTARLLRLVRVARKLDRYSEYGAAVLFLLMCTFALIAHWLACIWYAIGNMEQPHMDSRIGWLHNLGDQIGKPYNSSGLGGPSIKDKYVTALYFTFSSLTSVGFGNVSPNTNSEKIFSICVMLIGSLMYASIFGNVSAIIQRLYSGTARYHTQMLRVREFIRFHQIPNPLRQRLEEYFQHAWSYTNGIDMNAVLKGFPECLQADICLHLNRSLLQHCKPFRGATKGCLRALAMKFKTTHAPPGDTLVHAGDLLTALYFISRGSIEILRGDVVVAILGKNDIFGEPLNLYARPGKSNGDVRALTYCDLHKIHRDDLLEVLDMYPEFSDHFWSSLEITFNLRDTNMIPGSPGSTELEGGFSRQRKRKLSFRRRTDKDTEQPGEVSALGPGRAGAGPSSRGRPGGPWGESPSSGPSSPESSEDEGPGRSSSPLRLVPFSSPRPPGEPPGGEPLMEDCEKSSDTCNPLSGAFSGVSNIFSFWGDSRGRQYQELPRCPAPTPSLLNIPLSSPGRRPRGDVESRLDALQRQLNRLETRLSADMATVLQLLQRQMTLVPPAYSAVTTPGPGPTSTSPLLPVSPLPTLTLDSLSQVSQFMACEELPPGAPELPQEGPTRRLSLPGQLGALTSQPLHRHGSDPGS
With `Cc1ccc(C)c(Nc2c(F)c(F)c(F)c(F)c2C(=O)O)c1` the “hERG current change (%, negative = inhibition) at 10uM” value was 17.7%. With `CCCc1nnc(NC(=O)CCCC(=O)O)s1` the “hERG current change (%, negative = inhibition) at 10uM” value was 1.81%. In the case of `CC(=O)Nc1ccc(NC(=O)CSc2nnnn2-c2ccc(F)cc2)cc1`, the “hERG current change (%, negative = inhibition) at 10uM” value is reported as 15.5%. For `COC(=O)c1ccc(NC(=O)c2ccco2)cc1`, the “hERG current change (%, negative = inhibition) at 10uM” value was -0.103%. With `Cc1sc(-c2cccnc2)nc1OC(=O)C1CC1` the “hERG current change (%, negative = inhibition) at 10uM” value was 1.39%. With `FC(F)(F)c1ccccc1NC(=S)NC1CCN(Cc2ccccc2)CC1` the “hERG current change (%, negative = inhibition) at 10uM” value was -12.4%. For `COC(=O)c1ccc(C(=O)OC)c(NC(=S)N2CCOCC2)c1`, the “hERG current change (%, negative = inhibition) at 10uM” value was 14.5%. With `COc1ccccc1-n1c(SCC(=O)N2CCCC2)nc2cccnc21` the “hERG current change (%, negative = inhibition) at 10uM” value was 4.58%. In the case of `O=C(NC(c1ccccc1)c1ccccc1)c1ccc(S(=O)(=O)C(F)F)cc1`, the “hERG current change (%, negative = inhibition) at 10uM” value is reported as 22.9%. For `COc1ccc(CCNC(=O)COc2ccc(C)nc2[N+](=O)[O-])cc1OC`, the “hERG current change (%, negative = inhibition) at 10uM” value was 0.5%. `C[C@H](NC(=O)c1ccccc1F)C(=O)N1CCC2(CC1)NCCc1[nH]cnc12` was tested, and the “hERG current change (%, negative = inhibition) at 10uM” value was 19.1%. In the case of `Cc1ncsc1CCC(=O)N1CCCC(Nc2ccc(F)c(F)c2)C1` (stereo not drawn), the “hERG current change (%, negative = inhibition) at 10uM” value is reported as -17.6%. With `O=C(NCC(c1ccco1)N1CCc2ccccc2C1)C(=O)Nc1cc(F)ccc1F` (stereo not drawn) the “hERG current change (%, negative = inhibition) at 10uM” value was -52.3%. In the case of `CCc1ccccc1NC(=O)Cn1ccn(-c2ccc(OC)cc2)c(=O)c1=O`, the “hERG current change (%, negative = inhibition) at 10uM” value is reported as 1.09%. In the case of `COc1ccc(S(=O)(=O)N(C)c2ccccc2)c2cccnc12`, the “hERG current change (%, negative = inhibition) at 10uM” value is reported as -5.46%. With `O=[N+]([O-])c1ccc2c(c1)OCCOCCOCCOCCOCCOCCO2` the “hERG current change (%, negative = inhibition) at 10uM” value was -64.1%. For `CC(=C1C(=O)c2ccccc2C1=O)N1CCN(C/C=C/c2ccccc2)CC1`, the “hERG current change (%, negative = inhibition) at 10uM” value was -55.6%. In the case of `O=C(CCN1CCN(c2ccccc2)CC1)Nc1ccc(Cl)cc1`, the “hERG current change (%, negative = inhibition) at 10uM” value is reported as -17.9%. In the case of `Cc1c(C(=O)Nc2cccc(Cl)c2)oc2ccc(S(=O)(=O)N3CCC4(CC3)OCCO4)cc12`, the “hERG current change (%, negative = inhibition) at 10uM” value is reported as 2.26%. In the case of `COc1ccc(-c2csc3ncn(-c4ccccc4OC)c(=O)c23)cc1OC`, the “hERG current change (%, negative = inhibition) at 10uM” value is reported as -13.8%. `O=c1c(-c2ccc(Cl)cc2)[n+]([O-])c2ccccc2n1OCc1nc2ccccc2[nH]1` was tested, and the “hERG current change (%, negative = inhibition) at 10uM” value was -2.66%. In the case of `Cc1ccc(C(O)(C(=O)NNc2ccccn2)c2ccc(C)cc2)cc1`, the “hERG current change (%, negative = inhibition) at 10uM” value is reported as -5.38%. `CCN(C(=O)COC(=O)C1CCN(S(=O)(=O)c2ccc3c(c2)OCCO3)CC1)C1CCCCC1` was tested, and the “hERG current change (%, negative = inhibition) at 10uM” value was -2.31%. With `O=C(COC(=O)Cc1cccs1)NCc1ccc(F)cc1` the “hERG current change (%, negative = inhibition) at 10uM” value was 17.8%. With `COc1ccc(NC(=O)CSc2nnc(-c3ccoc3C)n2CCc2ccccc2)cc1` the “hERG current change (%, negative = inhibition) at 10uM” value was -54.3%. In the case of `Cc1ccc(C(=O)N2CCSC2=S)cc1`, the “hERG current change (%, negative = inhibition) at 10uM” value is reported as -1.95%. For `COc1cccc(NC(=O)Cc2c(C(=O)O)[nH]c3ccccc23)c1`, the “hERG current change (%, negative = inhibition) at 10uM” value was -6.37%. For `Cc1csc(CN(C)C(=O)C2CCC(=O)N(Cc3ccc(Cl)cc3)C2)n1` (stereo not drawn), the “hERG current change (%, negative = inhibition) at 10uM” value was -34%. With `CN(c1ccccc1)S(=O)(=O)c1cccc(NC(=O)CN2C(=O)NC3(CCCCC3)C2=O)c1` the “hERG current change (%, negative = inhibition) at 10uM” value was 1.3%. With `CN(CCCN1CCCCC1)C(=O)CCc1nnc(C2CCCCC2)o1` the “hERG current change (%, negative = inhibition) at 10uM” value was 10.8%. With `O=C(NC1CC1)c1ccc(NS(=O)(=O)c2ccccc2)cc1` the “hERG current change (%, negative = inhibition) at 10uM” value was 23.9%. In the case of `CCCCNS(=O)(=O)c1ccc2nc(-c3cccs3)cc(C(=O)NCC(OC)OC)c2c1`, the “hERG current change (%, negative = inhibition) at 10uM” value is reported as 9.85%. With `CC1CCCC(C)N1C(=O)COc1ccc(-c2nnco2)cc1` (stereo not drawn) the “hERG current change (%, negative = inhibition) at 10uM” value was 4.45%. With `O=S(=O)(c1ccc(N2CCN(CCO)CC2)nc1)N1CCOCC1` the “hERG current change (%, negative = inhibition) at 10uM” value was -7.59%. For `Cc1ccc(-n2nnnc2SCC(=O)N2CCCCC2)cc1`, the “hERG current change (%, negative = inhibition) at 10uM” value was -3.3%. For `Oc1ccc(Br)cc1/C=N/n1c(C2CCCCC2)n[nH]c1=S`, the “hERG current change (%, negative = inhibition) at 10uM” value was 18.9%. With `CCOc1ccccc1N1CCN(CC(O)COc2ccc3c(C)cc(=O)oc3c2)CC1` (stereo not drawn) the “hERG current change (%, negative = inhibition) at 10uM” value was -53.1%. `CN1CCN(C(=O)c2ccccc2NC(=O)c2ccc(C(C)(C)C)cc2)CC1` was tested, and the “hERG current change (%, negative = inhibition) at 10uM” value was -9.21%. `O=C1[C@@H]2CSCN2C(=O)CN1Cc1cccc(C(F)(F)F)c1` was tested, and the “hERG current change (%, negative = inhibition) at 10uM” value was 6.76%. For `NC(=O)C1CCN(C(=O)c2ccc3ccccc3c2)CC1`, the “hERG current change (%, negative = inhibition) at 10uM” value was -20.7%. With `COc1cccc(NC(=O)NCc2cccn2C)c1` the “hERG current change (%, negative = inhibition) at 10uM” value was 5.27%. With `CC(=O)c1ccc(N2CCN(c3ncccn3)CC2)cc1` the “hERG current change (%, negative = inhibition) at 10uM” value was -1.53%. For `Cc1ccc(S(=O)(=O)/N=C(/Nc2ccccn2)c2ccc(Cl)cc2)cc1`, the “hERG current change (%, negative = inhibition) at 10uM” value was -18%. For `CCSc1nnc(NC(=O)C(NC(=O)c2ccc(Cl)cc2)C(C)C)s1` (stereo not drawn), the “hERG current change (%, negative = inhibition) at 10uM” value was 6.2%. With `Cc1ccc(-c2csc(NC(=O)C3=COCCO3)n2)cc1C` the “hERG current change (%, negative = inhibition) at 10uM” value was -14.3%. For `O=C(N/N=C/c1ccco1)c1cc(-c2ccc3ccccc3c2)n[nH]1`, the “hERG current change (%, negative = inhibition) at 10uM” value was -3.17%. `CN=C1S/C(=C\c2ccc(O)c(Br)c2)C(=O)N1C` was tested, and the “hERG current change (%, negative = inhibition) at 10uM” value was 0.575%. For `CCNc1nc(Cl)nc(NCCOc2ccc(C)cc2)n1`, the “hERG current change (%, negative = inhibition) at 10uM” value was -18.5%. `O=C(O)CC1=C(O)C(=O)N(c2ccccc2)C1c1ccc(Br)cc1` (stereo not drawn) was tested, and the “hERG current change (%, negative = inhibition) at 10uM” value was 9.1%. With `O=C(COC(=O)C1CCCCC1)Nc1cccc(Br)c1` the “hERG current change (%, negative = inhibition) at 10uM” value was 7.75%. With `COc1ccc(NC(=O)Cn2nnc(-c3ccccc3NC(=O)c3cccs3)n2)cc1` the “hERG current change (%, negative = inhibition) at 10uM” value was 15.7%. In the case of `N#Cc1c(NC(=O)c2cccnc2)sc2c1CCC2`, the “hERG current change (%, negative = inhibition) at 10uM” value is reported as 6.82%. For `Oc1c(CN2CCc3ccccc3C2)cc(Cl)c2cccnc12`, the “hERG current change (%, negative = inhibition) at 10uM” value was -18%. For `Cc1cccc(NC(=O)c2ccccc2-c2ccccc2)c1`, the “hERG current change (%, negative = inhibition) at 10uM” value was -13.2%. `C[C@H](N)CN1CCc2ccc(Br)cc21.O=C(O)/C=C/C(=O)O` was tested, and the “hERG current change (%, negative = inhibition) at 10uM” value was -8.16%. For `Cc1ccnc(N2C(=O)c3ccccc3C2=O)c1`, the “hERG current change (%, negative = inhibition) at 10uM” value was 19.1%. For `O=S(=O)(Cc1ccco1)Cc1nc(-c2ccc(Cl)cc2)cs1`, the “hERG current change (%, negative = inhibition) at 10uM” value was -2.75%.
